{"source": "PubChem BioAssay AID686971", "about": "(National Center for Advancing Translational Sciences (NCATS), 2013)", "note": "In all, about 360,000 compounds went through this assay and about 7,500 (2.1%) were called active. Inconclusive means that the source gave no clear call. Such entries were picked first, then a sample of the others. Calls follow the shape of the dose curve; as a rule, active = well fitted cell-killing curve with a large enough effect; inconclusive = small, poorly fitted or top-dose-only effect, or effect the other way, or another doubt; inactive = no such curve, though single readings can be large or run the other way. Potencies of inconclusive entries are left out as doubtful fits. Potency is read from the fitted curve at half-maximal effect; tags tell the direction and shape of the fitted curve."}
{"assay": "qHTS for induction of synthetic lethality in tumor cells producing 2HG: qHTS for the HT-1080-IDH1KD cell line;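 as to activity, negative = toxicity: 0% = DMSO wells and -100% = cell-free medium wells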", "conditions": "HT-1080 IDH1 knockdown viability, ATP luminescence, 48 h; activity, negative = toxicity: at 46.1 µM (top of the series) unless noted", "in_short": "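CellTiter-Glo luminescence after 48 h compound exposure at 37 degrees C of IDH1-knockdown HT-1080 cells in 5% FBS RPMI. %Activity scaled between DMSO wells and cell-free media wells, with curves fitted and assigned curve classes.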"}
{"smiles": "Cc1c(C(=O)c2no[n+]([O-])c2C(=O)c2cnn(C)c2C)cnn1C", "Potency": "inconclusive [cytotoxic, single point]"}
{"smiles": "O=C1C=CC(=O)N1CCCCCCN1C(=O)C=CC1=O", "Potency": "inconclusive [cytotoxic, single point]"}
{"smiles": "COc1ccc(C(NC(C)=O)c2c(O)ccc3ccccc23)cc1OC", "note": "(stereo not drawn)", "activity, negative = toxicity": "inactive: 6.48%"}
{"smiles": "O=S(=O)(NCc1cccs1)c1ccc(Br)cc1", "activity, negative = toxicity": "inactive: 5.44%"}
{"smiles": "Cc1cc(C(=O)NCC(c2ccco2)N(C)C)ccc1[N+](=O)[O-]", "note": "(stereo not drawn)", "activity, negative = toxicity": "inactive: 10.8%"}
{"smiles": "COc1cc(C(=O)NCCC(=O)NC2CCCc3ccccc32)cc(OC)c1OC", "note": "(stereo not drawn)", "activity, negative = toxicity": "inactive: -6.77%"}
{"smiles": "C[C@]12C=CC(=O)C=C1CC[C@H]1[C@@H]3C[C@@H](O)[C@](O)(C(=O)CO)[C@@]3(C)C[C@H](O)[C@@]12F", "Potency": "inconclusive [rising, full curve]"}
{"smiles": "Cc1ccc(-n2sc3cc(F)ccc3c2=O)c(C)c1", "Potency": "inconclusive [cytotoxic, single point]"}
{"smiles": "COc1ccc(C(=O)Nc2ccc(O)c3ccccc23)cc1", "Potency": "inconclusive [cytotoxic, single point]"}
{"smiles": "COC(=O)c1cc2occc2n1Cc1nc(-c2ccccc2F)oc1C", "activity, negative = toxicity": "inactive: 8.72%"}
{"smiles": "Cc1cc(C(=O)COC(=O)c2ccc(O)cc2)c(C)n1-c1ccccc1F", "activity, negative = toxicity": "inconclusive: -34.2% [cytotoxic]"}
{"smiles": "COc1ccc(OC)c2[nH]c(C(=O)N/N=C/c3ccccc3O)cc12", "Potency": "inconclusive [cytotoxic, full curve]"}
{"smiles": "N#C/C(=C(/O)c1ccc(Br)s1)c1nc2ccccc2[nH]1", "Potency": "inconclusive [cytotoxic, partial curve]"}
{"smiles": "CC(=O)Nc1ccc(CNc2nc(NC(C)C)nc3cc(-c4ccccc4)sc23)cc1", "Potency": "inconclusive [cytotoxic, single point]"}
{"smiles": "O=C(CSc1cccc[n+]1[O-])c1cc(Cl)ccc1Cl", "Potency": "active: 2.31 µM"}
{"smiles": "CC(C)N1C(=O)c2ccccc2NC(=O)C1C(=O)NC1CC1", "note": "(stereo not drawn)", "Potency": "inconclusive [rising, partial curve]"}
{"smiles": "CC(C)c1ccc2[nH]c3c(c2c1)CCC/C3=N\\NC(=O)c1ccncc1", "Potency": "inconclusive [cytotoxic, single point]"}
{"smiles": "Cc1ccc(C)c(-n2nnnc2Sc2nc([N+](=O)[O-])nn2C)c1", "activity, negative = toxicity": "inactive: -0.614%"}
{"smiles": "COc1ccc(-c2ccc(SCC(=O)NC3CCCC3)nn2)cc1", "activity, negative = toxicity": "inactive: 3.32%"}
{"smiles": "CCCn1nnc(NC(=O)C(C)Oc2ccc(Cl)cc2Cl)n1", "note": "(stereo not drawn)", "activity, negative = toxicity": "inactive: 3.47%"}
{"smiles": "CC1(C)O[C@@H]2C[C@H]3[C@@H]4CCC5=CC(=O)CC[C@]5(C)[C@@]4(F)[C@@H](O)C[C@]3(C)[C@]2(C(=O)CCl)O1", "activity, negative = toxicity": "inconclusive: 19.4%"}
{"smiles": "COc1ccc(N/C=C(\\C2OC(=O)c3ccccc32)[N+](=O)[O-])cc1", "note": "(stereo not drawn)", "Potency": "inconclusive [cytotoxic, partial curve]"}
{"smiles": "Cc1ccc(-n2[nH]c(C)c(/C=N/NC(=O)c3ccc(O)cc3O)c2=O)cc1", "Potency": "active: 10.3 µM"}
{"smiles": "CCCCn1c(=O)[nH]c(=O)c2c1nc(Cn1ncc(Cl)c(Cl)c1=O)n2CCC", "Potency": "active: 11.6 µM"}
{"smiles": "O=C(C=Cc1ccc2c(c1)OCO2)c1ccccc1", "Potency": "active: 16.4 µM"}
{"smiles": "O=C(c1cnn2c(C(F)F)cc(-c3ccccc3)nc12)N1CCN(Cc2ccc3c(c2)OCO3)CC1", "Potency": "inconclusive [cytotoxic, single point]"}
{"smiles": "Cc1ccccc1-c1cc(C(=O)Nc2sc(C)c(C)c2C(N)=O)c2ccccc2n1", "Potency": "inconclusive [cytotoxic, single point]"}
{"smiles": "Cc1cc(C)c2cc(C(=O)N3CCC(C(=O)c4ccc(F)cc4)CC3)[nH]c2c1", "Potency": "inconclusive [cytotoxic, partial curve]"}
{"smiles": "COC(=O)CN(C(=O)CSc1nnc(-c2cccc(OC)c2)o1)c1ccc(OC)cc1", "activity, negative = toxicity": "inactive: -1.01%"}
{"smiles": "COc1ccc(OCC(=O)Nc2cccc(-c3nc4ccccc4o3)c2)cc1", "activity, negative = toxicity": "inactive: -5.73%"}
{"smiles": "CCCc1ccc2oc(C(=O)N3CCC(N4CCCC(O)C4)CC3)c(C)c2c1", "note": "(stereo not drawn)", "Potency": "inconclusive [cytotoxic, partial curve]"}
{"smiles": "CCN(CC)CCNC(=O)c1cc2c(s1)-c1ccccc1SC2", "Potency": "inconclusive [cytotoxic, single point]"}
{"smiles": "Cn1c(CSc2nc3ccc(Br)cc3[nH]2)nc2ccccc21", "Potency": "inconclusive [cytotoxic, single point]"}
{"smiles": "CC1(C(=O)Nc2ccc3c(c2)OCCO3)CCN1Cc1csc2ccccc12", "note": "(stereo not drawn)", "Potency": "inconclusive [cytotoxic, single point]"}
{"smiles": "Cc1cc(NC(=O)c2cc(-c3cccs3)nc3ccccc23)no1", "Potency": "inconclusive [cytotoxic, single point]"}
{"smiles": "OC(COc1ccc(Cl)cc1Cl)CN1CCc2ccccc2C1", "note": "(stereo not drawn)", "Potency": "inconclusive [cytotoxic, single point]"}
{"smiles": "Cc1ccc(S(=O)(=O)N2CCN(C(=O)c3cc(C4CC4)nc4c3cnn4C(C)C)CC2)cc1", "activity, negative = toxicity": "inactive: 0%"}
{"smiles": "Oc1ccc(C2C[C@H]3CC[C@@H]2C3)cc1O", "note": "(stereo partly drawn)", "Potency": "inconclusive [cytotoxic, single point]"}
{"smiles": "CCOc1ccc(OCC)c(NC(=O)Nc2ccc3c(c2)N(C)C(=O)CS3)c1", "Potency": "inconclusive [cytotoxic, single point]"}
{"smiles": "CN(C)c1ccc(Cc2cc3c(O)ccc(O)c3cc(Cc3ccc(N(C)C)cc3)c2=O)cc1", "Potency": "inconclusive [cytotoxic, single point]"}
{"smiles": "COC1OC(COCc2ccccc2)C(N)C(OCc2ccccc2)C1OCc1ccccc1", "note": "(stereo not drawn)", "Potency": "inconclusive [cytotoxic, single point]"}
{"smiles": "O=C(CCSc1ccccn1)c1ccccc1", "Potency": "inconclusive [cytotoxic, single point]"}
{"smiles": "Cc1ccccc1NC(=S)N=Nc1c(O)n(C)c2ccc(S(=O)(=O)N3CCOCC3)cc12", "Potency": "active: 20.6 µM"}
{"smiles": "CCOC(=O)COc1cc(OCC(=O)OCC)c2c3c(c(=O)oc2c1)CCCC3", "activity, negative = toxicity": "inactive: -0.417%"}
{"smiles": "Cc1ccc(S(=O)(=O)N2CCC(=O)N([C@H](COCc3ccc(Cl)c(Cl)c3)Cc3ccccc3)CC2)cc1", "activity, negative = toxicity": "inactive: 2.79%"}
{"smiles": "C=CCN(Cc1nc(-c2cc(OC)c3c(c2)OCO3)oc1C)C1CCS(=O)(=O)C1", "note": "(stereo not drawn)", "activity, negative = toxicity": "inconclusive: 26%"}
{"smiles": "CS(=O)(=O)c1nc(-c2ccccc2)cc(C(F)(F)F)n1", "Potency": "active: 11.6 µM"}
{"smiles": "COc1ccc(N2C(=S)N(C(=O)c3ccccc3)C(=Nc3ccccc3)C2=Nc2ccccc2)cc1", "Potency": "inconclusive [cytotoxic, single point]"}
{"smiles": "O=C(N/N=C/C=C\\c1cccc([N+](=O)[O-])c1)c1cccnc1", "Potency": "inconclusive [cytotoxic, single point]"}
{"smiles": "O=C(c1ccccc1)c1ccc(OCC(O)CNCc2cccc(Cl)c2)cc1", "note": "(stereo not drawn)", "Potency": "inconclusive [cytotoxic, single point]"}
{"smiles": "O=C(Cc1ccccc1)NCC(=O)N1CCN(c2ccc(F)cc2)CC1", "activity, negative = toxicity": "inactive: -0.111%"}
{"smiles": "Cc1nc(SCC(=O)Nc2sccc2C(N)=O)c2c(C)c(C)sc2n1", "Potency": "inconclusive [cytotoxic, single point]"}
{"smiles": "COC(=O)Nc1ccc(S(=O)(=O)N2CCCCCC2)cc1", "Potency": "inconclusive [cytotoxic, partial curve, poor fit]"}
{"smiles": "CC(Oc1ccc(Br)cc1)C(=O)Nc1cc(Cl)ccc1N1CCN(C)CC1", "note": "(stereo not drawn)", "Potency": "active: 20.6 µM"}
{"smiles": "C=CCNC(=O)/C(C#N)=C\\c1cc(Cl)c(OCC)c(OC)c1", "Potency": "inconclusive [cytotoxic, single point]"}
{"smiles": "C/C(=N\\OCC(=O)Nc1ccc(Br)cc1)c1cccs1", "Potency": "inconclusive [cytotoxic, partial curve]"}
{"smiles": "CCc1nnc(NC(=O)c2cc(Cl)ccn2)s1", "activity, negative = toxicity": "inconclusive: -36.4% [cytotoxic]"}
{"smiles": "O=C(NC(=S)NNC(=O)c1cnccn1)c1ccc(Cl)cc1", "Potency": "inconclusive [cytotoxic, full curve]"}
{"smiles": "COc1ccc(Nc2nc(C)nc3c2nnn3Cc2ccccc2Cl)c(OC)c1", "activity, negative = toxicity": "inactive: 5.24%"}
{"smiles": "CC(=O)N1CCC2(CC1)C/C(=N\\NC(=S)Nc1ccccc1F)c1cc(O)ccc1O2", "Potency": "inconclusive [cytotoxic, single point]"}
{"smiles": "O=C1C(=O)c2ccc(-c3ccccc3)cc2-c2ccccc21", "Potency": "active: 3.26 µM"}
{"smiles": "CCOC(=O)C1CCN(C(=O)CCCNC(=O)Cn2cnc3sc(C)c(C)c3c2=O)CC1", "activity, negative = toxicity": "inactive: 2.89%"}
{"smiles": "CC(C)(C)C1CCC2(CC1)NC(=S)N(c1ccccc1)N2", "note": "(stereo not drawn)", "Potency": "active: 5.8 µM"}
{"smiles": "C=C(CN(C)C)C(=O)c1ccc(C)cc1C", "Potency": "active: 5.8 µM"}
{"smiles": "C=CC[n+]1ccc(/C=C2\\C=Cc3cc(C)ccc3N2CC)c2ccccc21", "Potency": "active: 4.11 µM"}
{"smiles": "COc1ccc(CNCCC(c2ccc(OC(C)C)cc2)c2ccccc2OC)cc1OC", "note": "(stereo not drawn)", "Potency": "active: 18.4 µM"}
{"smiles": "CCOc1ccc(C(=O)/C=C/Nc2ccc(S(=O)(=O)Nc3cc(C)nc(C)n3)cc2)cc1", "Potency": "inconclusive [rising, single point]"}
{"smiles": "N#CC(c1ccc(Cl)nn1)c1ccc(Cl)cc1Cl", "note": "(stereo not drawn)", "Potency": "inconclusive [cytotoxic, single point]"}
{"smiles": "COc1ccc(N=Nc2ccc(O)c3ncccc23)cc1", "Potency": "active: 4.61 µM"}
{"smiles": "O=C(NC1CCCC1)C(c1ccncc1)N(Cc1ccco1)C(=O)c1ccc(-c2ccccc2)[nH]1", "note": "(stereo not drawn)", "Potency": "active: 14.6 µM"}
{"smiles": "O=C(/C=C/c1ccccc1)Nc1ccc(Br)cn1", "Potency": "active: 5.17 µM"}
{"smiles": "Cc1ccc(Oc2c(C(N)=O)cc([N+](=O)[O-])cc2[N+](=O)[O-])cc1", "Potency": "inconclusive [cytotoxic, single point]"}
{"smiles": "CC(=O)Nc1nc2ccccc2n1Cc1ccc(Cl)cc1", "Potency": "active: 16.4 µM"}
